Among all 310,000 compounds or so, about 2,200 (0.71%) showed an effect of 50% or more. The effect is printed as a negative number. This is one part of the list.

In this test the target is human ether-à-go-go-related gene (hERG) potassium channel (human, UniProt Q12809). Briefly: primary screen, population patch clamp on CHO cells stably expressing hERG.
Sequence of human ether-à-go-go-related gene (hERG) potassium channel (Q12809 whole entry, looked up): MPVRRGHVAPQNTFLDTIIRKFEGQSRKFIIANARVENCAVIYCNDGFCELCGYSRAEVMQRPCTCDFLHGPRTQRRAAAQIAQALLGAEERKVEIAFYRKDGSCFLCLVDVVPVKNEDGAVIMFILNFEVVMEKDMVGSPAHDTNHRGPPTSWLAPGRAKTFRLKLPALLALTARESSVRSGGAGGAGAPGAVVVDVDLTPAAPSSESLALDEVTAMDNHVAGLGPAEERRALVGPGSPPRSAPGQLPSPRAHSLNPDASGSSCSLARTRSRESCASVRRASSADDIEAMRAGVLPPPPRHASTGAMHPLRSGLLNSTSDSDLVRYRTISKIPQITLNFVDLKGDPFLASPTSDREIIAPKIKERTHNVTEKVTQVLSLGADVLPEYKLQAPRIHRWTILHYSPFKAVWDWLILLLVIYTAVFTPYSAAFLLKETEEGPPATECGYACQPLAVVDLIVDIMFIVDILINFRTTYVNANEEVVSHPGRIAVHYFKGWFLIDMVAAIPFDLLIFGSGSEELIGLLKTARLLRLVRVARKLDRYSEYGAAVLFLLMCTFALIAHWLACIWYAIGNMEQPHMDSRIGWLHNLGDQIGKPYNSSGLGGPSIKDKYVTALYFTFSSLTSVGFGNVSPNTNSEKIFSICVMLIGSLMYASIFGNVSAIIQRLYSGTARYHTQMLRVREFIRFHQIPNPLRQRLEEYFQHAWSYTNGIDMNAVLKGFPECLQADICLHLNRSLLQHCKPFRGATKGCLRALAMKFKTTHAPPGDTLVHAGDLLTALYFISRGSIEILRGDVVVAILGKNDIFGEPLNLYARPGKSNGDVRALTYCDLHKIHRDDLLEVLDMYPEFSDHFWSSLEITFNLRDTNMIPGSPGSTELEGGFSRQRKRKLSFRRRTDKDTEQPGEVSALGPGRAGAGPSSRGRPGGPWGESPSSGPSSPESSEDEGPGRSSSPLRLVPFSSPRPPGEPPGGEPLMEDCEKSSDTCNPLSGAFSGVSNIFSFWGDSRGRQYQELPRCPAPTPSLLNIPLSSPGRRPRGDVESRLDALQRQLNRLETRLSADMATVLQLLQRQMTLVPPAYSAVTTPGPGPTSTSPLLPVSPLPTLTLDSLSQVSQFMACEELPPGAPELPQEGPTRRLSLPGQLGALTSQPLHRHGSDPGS
Regarding `CC/C(C)=N\Nc1nc(-c2cc3cc(OC)ccc3oc2=O)cs1`, the “hERG current change (%, negative = inhibition) at 1uM” value stood at 12.7%.

For the molecule `Cc1ccc(NS(=O)(=O)c2ccc3c(c2)NC(=O)CO3)cc1C`, the “hERG current change (%, negative = inhibition) at 1uM” value is reported as 14.5%. Turning to `O=C(NNc1nc2ccccc2s1)c1ccc(F)cc1`, the “hERG current change (%, negative = inhibition) at 1uM” value amounted to 7.03%.

Regarding `CCOC(=O)N1CCN(C(=O)CNC(=O)c2nn(-c3ccc(OC)c(OC)c3)c(=O)c3ccccc23)CC1`, the “hERG current change (%, negative = inhibition) at 1uM” value was 16.4%. For the molecule `COc1ccccc1-n1c(SCC(=O)N2CCCCC2)nc2cccnc21`, the “hERG current change (%, negative = inhibition) at 1uM” value is 9.78%. Then `Cc1ccc(Cn2c(O)c(N=O)c3ccccc32)cc1`, with 11.7%; and `COc1ccc(/C=N\NC(=O)C2C(=O)NCC2c2ccccc2)cc1O` (centres unmarked), with 11.1%; and `Cc1ccn2c(=O)nc(SCC(=O)N3CCC(C)CC3)nc2c1`, with 8.31%. Turning to `CCOC(=O)c1c(C)c(C(=O)NCc2ccco2)c(C)n1CC`, the “hERG current change (%, negative = inhibition) at 1uM” value came to 3.33%. Then `COc1ccc(CNC(=O)CN2CCC(n3nnc4cc(F)ccc43)CC2)cc1`, with -43.4%; and `CCn1c(C(C)NC(=O)c2ccc(C)cc2)n[nH]c1=S` (centres unmarked), with 7.58%.

In the case of `CC1(NC(=O)Nc2cccc3ccccc23)CCS(=O)(=O)C1` (centres unmarked), the “hERG current change (%, negative = inhibition) at 1uM” value stood at 19.6%. To `O=C(CCCNC(=O)c1ccc(Cl)cc1)OCc1cccc(Br)c1` belongs 11.2%; to `O=C(COc1coc(CN2CCc3ccccc32)cc1=O)Nc1ccc([N+](=O)[O-])cc1`, 14.2%; to `Cc1nn2cc(-c3ccc(N)cc3)nc2s1`, -12.2%.

`O=c1c2c(ncn2C2CCCC2)n(Cc2ccccc2)c(=O)n1CCOc1ccc(Br)cc1`: the “hERG current change (%, negative = inhibition) at 1uM” value came out at 4.25%. As for `CCCc1cc(=O)[nH]c(SCc2cc(=O)oc3c(C)c(C)ccc23)n1`, the “hERG current change (%, negative = inhibition) at 1uM” value came to 5.12%. Then `Cc1cnc(NC(=O)CSc2c(Cl)cccc2Cl)s1`, with 10.5%.

Take `COC(=O)c1ccc(NC(=O)Cn2nc(C)c3ccccc3c2=O)cc1`: the “hERG current change (%, negative = inhibition) at 1uM” value is reported as 11.3%. To `COc1ccc(S(=O)(=O)c2c(O)cc(C)c(NS(=O)(=O)c3ccccc3)c2C)cc1` belongs 16.8%; to `O=C(Nc1ccc(Br)cc1)c1ccc(F)c(S(=O)(=O)NCc2cccs2)c1`, 11.7%; to `CCOc1cc(/C=N/NC(=O)c2ccc(O)cc2)ccc1Oc1nc(Cl)ncc1F`, -2.61%. Then `CN(C)CCCNC(=S)Nc1ccc(Oc2ccccc2)cc1`, with 0.471%; and `O=C(C[n+]1cnn(CC(=O)c2ccc(Cl)cc2Cl)c1)c1ccc([N+](=O)[O-])cc1.[Br-]`, with -35.6%; and `COc1ccc2nc3c(cc2c1)c(NC(=O)C1CCCO1)nn3CC(C)C` (centres unmarked), with 1.75%. In the case of `CCOC(=O)c1c(NC(=O)CSc2ncn[nH]2)sc(C)c1C`, the “hERG current change (%, negative = inhibition) at 1uM” value stood at 5.42%.

For the molecule `COc1ccc([C@H]2CC(=O)C=C(c3cc(Cl)ccc3C)C2)cc1`, the “hERG current change (%, negative = inhibition) at 1uM” value is reported as 12%. To `S=C(NCCN1CCOCC1)Nc1ccccc1Cl` belongs 13.5%. Take `Cc1cccc(NP(C)(=O)c2nc3c(s2)CCCC3)c1` (centres unmarked): the “hERG current change (%, negative = inhibition) at 1uM” value is reported as -2.39%. To `O=C(N[C@@H](Cc1ccccc1)C(=O)OCc1ccccc1)c1nc[nH]c1C(=O)NC(c1ccccc1)c1ccccc1` belongs 16.8%. To `O=C(NC1CCCC1)[C@@H]1CSC2c3ccccc3C(=O)N21` (some centres unmarked) belongs 13.4%; to `COc1ccccc1C(=O)N/C(=C/c1ccco1)C(=O)Nc1cccc(C(=O)O)c1`, 0.909%. On to `COc1ccc2cc(C(=O)/C=C/c3cc(OC)c(O)c(OC)c3)ccc2c1`, for which the “hERG current change (%, negative = inhibition) at 1uM” value was determined as 7.68%. To `O=c1c2c3c(sc2n(CCN2CCCC2)c(=O)n1Cc1ccco1)CCCCC3` belongs -67%; to `CN1C(=O)CC(C(=O)O)SC1=Nc1cccc(C(F)(F)F)c1` (centres unmarked), 4.93%; to `OCC1CCCC(n2cnc3c(=S)nc[nH]c32)O1` (centres unmarked), 13.5%. For `Cc1cc(CNC(=O)CC2C(=O)NCCN2Cc2ccccc2C(F)(F)F)nn1C` (centres unmarked), the “hERG current change (%, negative = inhibition) at 1uM” value was 12.8%.

For the molecule `CCOC(=O)c1sc(NC(=O)Cn2nnc3sc4c(c3c2=O)CCCC4)nc1C`, the “hERG current change (%, negative = inhibition) at 1uM” value turned out to be 4.22%. Then `Cc1ccc(-c2cc(NC(=O)CCl)n(-c3ccccc3)n2)cc1`, with -3.27%. Then `O=C(CSc1nnc(Cc2ccccc2)o1)c1cc(F)ccc1F`, with 12.7%; and `Cn1cccc1/C=N/NC(=O)c1ccc[n+]([O-])c1`, with 12.5%; and `CCN(CC)C(=O)c1ccccc1NS(=O)(=O)c1ccc(OC)c(C(=O)N2CCOCC2)c1`, with 10.3%. Then `CCOC(=O)C1(Cc2cccc(OC)c2)CCCN(C(=O)CSC)C1` (centres unmarked), with 4.79%. On to `O=C(O)CNC(=S)N(Cc1ccccc1)Cc1cccnc1`, for which the “hERG current change (%, negative = inhibition) at 1uM” value is listed as 7.35%.

The values above are taken from publication PMC4336329 (PLoS ONE, 2015).
